# The whole screen tested about 410,000 compounds, of which about 6,400 (1.6%) were called active. The shares of active, inactive and inconclusive entries below differ from those in the screen. The call rests on the fitted dose curve; in most records, active means well fitted inhibition curve with a large enough effect; inconclusive means small, poorly fitted or top-dose-only effect; inactive means no such curve, though single readings can be large or run the other way. Potencies of inconclusive entries are left out as doubtful fits.
# Target: Glucagon-like peptide 1 receptor (Homo sapiens) (UniProt P43220)
# Experiment: qHTS of GLP-1 Receptor Inverse Agonists (Inhibition Mode); further: nearly all actives have a fitted effect of over 55% in size
# Settings: HEK293 GLP-1R CRE-luciferase, luminescence, 24 h, GLP-1R form is constitutively active; activity change, negative = inhibition: at 38.3 µM (top of the series) unless noted
# From the text: The overall goal of this project was to develop a novel assay for discovering small molecule ligands for class B1 G protein-coupled receptors (GPCRs). Very few agonists (or inverse agonists in inhibition mode) with generally weak activity for this entire group of physiologically important receptors are known to date. To establish proof-of-principle that this critical bottleneck can be overcome with a suitable screening approach, our studies focused on the class B1 receptor for glucagon-like peptide-1 (GLP-1R), a potential therapeutic target for diabetes and neurodegenerative disease. The assay was developed using a cell-based functional readout. Toward this goal, stably transfected HEK293 cell clones were established that co-express (i) a cAMP-responsive luciferase reporter gene, and (ii) constitutively active GLP-1R that upon ligand interaction inhibit (inverse agonists) the luciferase activity. In addition, two control cell lines were developed: (i) one that express only the cAMP-responsive reporter gene to enable initial exclusion of GLP-1R independent effects of candidate probes; and (ii) one with the reported gene cloned with another constitutively active orphan receptor GPR119 to enable exclusion of GLP-1R independent inhibitor effects of candidate inverse agonists. To that end, this assay was optimized for 1536-well format and screened against the MLSMR. […] NIH Molecular Libraries Probe Production Network [MLPCN] NIH Chemical Genomics Center [NCGC] Grant: NS064851 PI Name: Martin Beinborn, Tufts Medical Center
# Six ul of cell suspension (200 cells/uL in DMEM + 10% Nu serum + 1% pen-strep) is dispensed in a white solid 1536-well plate. The plates are incubated for 12 hours at 37 deg C at 5% CO2 followed by addition of 23 nL compounds. After 24 hr incubation at 37 deg C and 5% CO2, 3 uL of luciferase assay detection reagent is added. A luminescence read is obtained on the PerkinElmer Viewlux after 12 min incubation at room temperature.
# On the % scale 0 is the no-effect control and ±100 the full control effect; potency means the concentration at half of the fitted maximal effect; tags describe the fitted curve by direction and shape.
# UniProt P43220, sequence (P43220 whole entry, looked up): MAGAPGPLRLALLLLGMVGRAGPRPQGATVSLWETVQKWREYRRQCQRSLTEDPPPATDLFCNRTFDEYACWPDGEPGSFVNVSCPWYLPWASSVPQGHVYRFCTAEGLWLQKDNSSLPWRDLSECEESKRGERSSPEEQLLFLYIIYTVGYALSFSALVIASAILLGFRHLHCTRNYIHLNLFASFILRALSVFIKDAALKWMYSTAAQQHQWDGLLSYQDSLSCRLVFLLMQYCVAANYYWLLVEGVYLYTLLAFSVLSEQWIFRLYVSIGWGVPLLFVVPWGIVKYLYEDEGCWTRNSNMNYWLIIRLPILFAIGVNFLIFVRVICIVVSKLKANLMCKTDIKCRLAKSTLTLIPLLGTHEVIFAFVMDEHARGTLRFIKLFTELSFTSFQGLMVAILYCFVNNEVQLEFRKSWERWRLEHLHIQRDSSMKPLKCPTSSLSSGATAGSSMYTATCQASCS
Compound,Potency,"activity change, negative = inhibition"
COc1cc2nc(Nc3ccc(C)c(C)c3)nc(N)c2cc1OC,active: 10 µM,
O=C(CCN1CCOCC1)N1CCc2c([nH]c3ccccc23)C1c1cccc(Cl)c1 (stereo not given),"inconclusive [inhibitor, single point]",
Cc1nc2ccn(Cc3cccs3)c(=O)c2cc1C(=O)NCc1ccc(Cl)cc1,"inconclusive [inhibitor, full curve, poor fit]",
O=C(Nc1ccccc1C(F)(F)F)c1cc(S(=O)(=O)N2CCC3(CC2)OCCO3)ccc1F,"inconclusive [inhibitor, partial curve, poor fit]",
Cc1cc([N+](=O)[O-])cc2c1NC(=O)C2(O)N1CCCCCC1 (stereo not given),inactive,
Cc1ccc(NC(=O)c2sccc2SCc2cccc(C(F)(F)F)c2)cc1,"inconclusive [inhibitor, partial curve, poor fit]",
COc1ccc(C(=O)NN=C2CCCC2)c(OC)c1,"inconclusive [inhibitor, single point]",
Nc1nc(N2CCOCC2)nc(N(c2ccccc2)c2ccccc2)n1,inactive,
FC(F)(F)C(Oc1nc(Nc2ccc(Cl)cc2)nc(N2CCOCC2)n1)C(F)(F)F,"inconclusive [inhibitor, full curve, poor fit]",
Cc1cccc(OC(=O)c2nc(SCc3ccccc3F)ncc2Cl)c1,inactive,
Cc1ccnc(NC(=S)NC(=O)c2ccco2)c1,"inconclusive [inhibitor, single point]",
COc1cc(/C=N/NC(=O)COc2cccc(F)c2)ccc1OS(=O)(=O)c1ccc(C)cc1,"inconclusive [inhibitor, full curve, poor fit]",
CCOC(=O)c1ccc(NC(=O)Cn2cc(C(=O)c3cccs3)c3ccccc32)cc1,"inconclusive [inhibitor, partial curve, poor fit]",
COc1ccc(C2CC(c3ccccc3Br)=NN2c2ccc(S(N)(=O)=O)cc2)cc1 (stereo not given),"inconclusive [inhibitor, single point]",
COc1ccccc1NC(=O)C1=C(C)Nc2c(C(=O)Nc3cccc(C)c3)cnn2C1c1ccccc1C (stereo not given),"inconclusive [inhibitor, single point]",
O=C(Cc1ccc(-c2ccccc2)cc1)Nc1ncccc1O,"inconclusive [inhibitor, full curve]",
CSc1cccc(NC(=S)N2CCC(N(C)C3CCCCCC3)CC2)c1,"inconclusive [inhibitor, partial curve, poor fit]",
O=c1c2sccc2n(Cc2cccc(F)c2)c(=O)n1-c1ccc(F)cc1,"inconclusive [inhibitor, partial curve]",
Cc1cnc(NC(=O)c2ccc3c(c2)OCCO3)s1,"inconclusive [inhibitor, full curve, poor fit]",
Cc1ccc(-c2cc(C(=O)N(C)CC(=O)Nc3ccccc3Br)c3ccccc3n2)o1,"inconclusive [inhibitor, single point]",

Compound,Potency,"activity change, negative = inhibition"
COc1ccc(S(=O)(=O)Cc2ccc(C(=O)N3CCN(c4cc(Cl)ccc4C)CC3)o2)cc1,"inconclusive [inhibitor, single point]",
Cc1ccc(/C=C/c2nc3ccccc3n2S(=O)(=O)c2cccc(Cl)c2)cc1,"inconclusive [inhibitor, partial curve, poor fit]",
O=c1c2c(nc3c(-c4ccc(Cl)cc4)c[nH]n13)CCC2,"inconclusive [inhibitor, partial curve]",
COc1ccc(NC(=O)C[C@H]2C(=O)N(Cc3ccccc3)C[C@@H]2Cc2ccccc2)cc1,"inconclusive [inhibitor, single point]",
O=[N+]([O-])c1ccc(CN2CCC(Cc3ccccc3)CC2)cc1,"inconclusive [inhibitor, partial curve, poor fit]",
CC1COc2ccccc2N1C(=O)c1ccc(Cl)cc1 (stereo not given),,inconclusive: -35.5% [inhibitor]
O=C(CN1CCN(c2ccc(F)cc2)CC1)Nc1ccccc1,"inconclusive [inhibitor, partial curve, poor fit]",
CCCCNC(=O)CSC1=Nc2ccccc2C2=NC(CCC(=O)NCc3ccccc3OC)C(=O)N12 (stereo not given),inactive,
O=C(N/N=C/C(Br)=C/c1ccccc1)NC1CCCCC1,"inconclusive [inhibitor, partial curve, poor fit]",
COc1ccc(C(=O)N2CCN(c3cccc(Cl)c3)CC2)cc1S(=O)(=O)NC1CC1,"inconclusive [inhibitor, single point]",
CCCc1cc(C(=O)Cc2ccc(F)cc2)c(O)cc1O,"inconclusive [inhibitor, partial curve, poor fit]",
Cc1cccc2cc(-c3nc4ccc(C(=O)O)cc4[nH]3)c(=O)oc12,"inconclusive [inhibitor, partial curve, poor fit]",
COc1ccc(-c2nc3ccc(Cl)cn3c2NC2CCCCC2)cc1SC1CCCCC1,"inconclusive [inhibitor, single point]",
COC(=O)C1=C(N)Oc2cc(C)n(CC3CCCO3)c(=O)c2C1c1ccc(Cl)c(Cl)c1 (stereo not given),"inconclusive [inhibitor, single point]",
O=C(/C(C=Nc1ccc(F)cc1)=C(/O)c1ccco1)C(F)(F)F,inactive,
O=C(N/N=C/c1ccc2c(c1)OCO2)c1ccc(COCC(F)(F)C(F)F)cc1,"inconclusive [inhibitor, full curve, poor fit]",
CCc1ccc(CNc2ncnc3onc(-c4ccc(Cl)cc4)c23)cc1,inactive,
COc1ccc(-n2nnnc2S(=O)(=O)Cc2ccc(C(=O)O)cc2)cc1,inactive,
CCCCOC(=O)c1c(C)oc2ccc(NS(=O)(=O)c3ccc(F)cc3C)cc12,"inconclusive [inhibitor, partial curve, poor fit]",
CCOc1ccc(CN(C(=O)c2cc(=O)c3cc(Cl)ccc3o2)C2CCS(=O)(=O)C2)cc1 (stereo not given),inactive,

# Source: PubChem BioAssay AID624417 (National Center for Advancing Translational Sciences (NCATS), 2012)
